# PubChem BioAssay AID1508642 (National Center for Advancing Translational Sciences (NCATS), 2021)
# Hit rate of the full screen: of about 43,000 compounds, about 200 (0.47%) were called active. Not shown: some 12% with an inconclusive outcome. Calls follow the shape of the dose curve; as a rule, active = well fitted cell-killing curve with a large enough effect; inconclusive = small, poorly fitted or top-dose-only effect, or effect the other way; inactive = flat fitted curve, though single readings scatter. Some of the results follow.
# Test: Cell viability qHTS assay in S16 Pmp22-F2sN cells; also: nearly all actives have a fitted effect of over 65% in size
# Settings: S16 Pmp22-F2sN Schwann cells viability, CellTiter-Glo, 24 h; series mostly up to 57.5 µM; activity change, negative = cytotoxicity: at the top concentration
# How it was run: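 Used to flag compounds lowering reporter output through toxicity, this quantitative HTS measures ATP-based CellTiter-Glo luminescence in S16 Pmp22-F2sN Schwann cells after 24 h compound exposure at 37C.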
# % is scaled to controls: 0 for no effect and ±100 for the full control effect.
row,Compound,"activity change, negative = cytotoxicity"
1,Cc1cc(C)cc(-n2c(SCC(N)=O)nc3c([nH]c4ccccc43)c2=O)c1,inactive: 16.2%
2,O=C(Nc1ccccc1C(F)(F)F)N1CCC(CN2CCc3ccccc3C2)CC1,inactive: 3.27%
3,O=C(NC1CC(=O)N(c2cccc(F)c2)C1)c1cc2ccccc2o1 (configuration not stated),inactive: 12.4%
4,Cc1ccc(OCc2ccc(-c3nc(C#N)c(NCc4ccccc4Cl)o3)o2)cc1,inactive: -1.2%
5,COc1ccc(Nc2ncnc3c2cnn3-c2ccc(C)cc2)cc1Cl,inactive: 8.38%
6,Cc1ccc2nc(-c3cccc(NC(=O)c4cccc5ccccc45)c3)oc2c1,inactive: -8.81%
7,CCC(=O)N1CCc2cc(Br)cc(S(=O)(=O)CCC(=O)NCc3cccc(OC)c3)c21,inactive: -0.943%
8,CCOC(=O)c1ccc(CN(Cc2ccccc2C)S(=O)(=O)c2ccc(F)c(C)c2)cc1,inactive: -16.7%
9,COCCNc1oc(/C=C/c2ccc(F)cc2)nc1C#N,inactive: 3.74%
10,COc1ccccc1NC(=O)c1oc2ccccc2c1NC(=O)C1CCCCC1,inactive: 20%
11,CC1C(=O)N2CCCc3cc(S(=O)(=O)N4CCC(C(N)=O)CC4)cc1c32 (configuration not stated),inactive: -1.24%
12,Cc1ccc2cc(CN(C(=O)c3cccc(Cl)c3)c3ccccc3)c(=O)[nH]c2c1,inactive: 0.636%
13,CCCSCCCNC(=O)c1ccc2c(c1)sc1nc(-c3ccc(OCC)cc3)cn12,inactive: 4.03%
14,Cc1ccccc1CSc1nc2ccsc2c(=O)n1CCC(C)C,inactive: 8.86%
15,O=C(NCc1ccccc1F)C1CCN(c2nn3cc(-c4ccc(F)cc4)nc3s2)CC1,inactive: -3.11%
16,CN1c2ccc(Cl)cc2-c2nc(SCC(=O)NCc3ccccc3)ncc2S1(=O)=O,inactive: 7.98%
17,COc1cccc(CNC(=O)c2cnc(N3CCCCC3)c3ccccc23)c1,inactive: 4.73%
18,CCc1ccc2oc(C(=O)Nc3ccccc3C(=O)OC)cc(=O)c2c1,inactive: 6.34%
19,COc1ccc(CNC(=O)Cn2c(=O)cc(-c3ccccc3)c3c(C)nn(C)c32)cc1,inactive: 3.57%
20,COc1ccc(S(=O)(=O)N(CC(=O)Nc2cccnc2)c2ccc(Cl)cc2)cc1,inactive: 19.2%
21,CCOc1ccccc1CNC(=O)c1cccn1-c1nnc(N2CCCC2)s1,inactive: 0.767%

row,Compound,"activity change, negative = cytotoxicity"
1,Cc1cccc(N2CCN(C(=O)Cn3nc(Cc4cccnc4)c4ccccc4c3=O)CC2)c1C,inactive: -17.1%
2,COc1ccc(NC(=O)Cn2c(=O)ccc3cc(S(=O)(=O)N4CCCC4)ccc32)cc1Cl,inactive: -1.88%
3,COc1ccc(CNC(=O)COCc2cc(-c3cccs3)on2)cc1,inactive: 1.32%
4,O=C(O)Cn1ccc2cc(S(=O)(=O)N3CCCCCC3)ccc21,inactive: -2.68%
5,Cc1ccccc1CSc1cn(CC(=O)N2CCCCCC2)c2ccccc12,inactive: -11.1%
6,Cc1cccn2c(=O)c(C(=O)NCCc3ccc(S(N)(=O)=O)cc3)c(O)nc12,inactive: 4.37%
7,COc1ccc(NC(=O)c2c(NCc3cccc(OC)c3)sc3c2CCCC3)cc1,inactive: -21.2%
8,Cc1ccc2occ(CC(=O)N(Cc3ccc(C(C)C)cc3)C3CCS(=O)(=O)C3)c2c1 (configuration not stated),inactive: -14.7%
9,O=C(CCC1N=C2c3ccccc3N=C(SCc3ccccc3F)N2C1=O)NCc1ccc(F)cc1 (configuration not stated),inactive: -2.04%
10,CC(C)(C)c1ccc(C(=O)N2CCC(c3nc4ccccc4o3)CC2)cc1,inactive: -21.4%
11,Cc1ccc(-n2c(=O)c3c(c4cc(C)ccc4n3C)n(CC(=O)NCc3ccccc3)c2=O)cc1,inactive: 1.35%
12,CCN1CCc2nc3sc(C(=O)c4ccc(F)cc4)c(N)c3cc2C1,inactive: 0.641%
13,COc1ccccc1NC(=O)CSc1nc(-c2ccccc2F)nc2cc(=O)[nH]n12,inactive: 4.42%
14,COc1ccc(CCNc2nc3c(-c4cccc(C)c4)nnn3c3ccccc23)cc1OC,inactive: 8.57%
15,COc1ccc(-c2onc(C)c2C)cc1S(=O)(=O)NCC1CCN(Cc2cccc(F)c2)CC1,inactive: -24.7%
16,CC1=C(c2ccc(Cl)cc2)S(=O)(=O)N=C1N1CCC(C(=O)NCc2ccccc2F)CC1,inactive: -17%
17,O=C(NCCc1ccccc1)C(=O)NCC(c1ccc2c(c1)OCO2)N1CCOCC1 (configuration not stated),inactive: -1.26%
18,CC1CCN(S(=O)(=O)c2nnc(NC(=O)c3cccc(Br)c3)s2)CC1,inactive: -17.6%
19,CCS(=O)(=O)N1CCc2cc(C(=O)NCCc3ccc(OC)cc3)ccc21,inactive: 0.553%
20,COc1cc(NC(=O)CC(C)n2nc(C)cc2C)cc(OC)c1 (configuration not stated),inactive: -1.58%
21,CCNc1nc(NC(C)(C)C)nc(Oc2ccc(=O)n(C)n2)n1,inactive: 13.6%

row,Compound,"activity change, negative = cytotoxicity"
1,Cc1ccc(NC(=O)Cn2c(=O)n(CCC(=O)NCc3ccccc3Cl)c(=O)c3ccccc32)cc1,inactive: 8.03%
2,Cc1ccc(-c2nnc3ccccc3c2C(=O)Nc2ccccc2F)cc1,inactive: -1.65%
3,CCOc1ccccc1C(=O)N(Cc1ccccc1F)C1CCS(=O)(=O)C1 (configuration not stated),inactive: 5.17%
4,COc1cc(NC(=O)C(CCSC)NS(=O)(=O)c2ccc3c(c2)oc(=O)n3C)cc(OC)c1 (configuration not stated),inactive: -1.6%
5,COc1ccc(NC(=O)CCc2c(C)nc3nc(CNC(=O)OC(C)(C)C)nn3c2C)cc1OC,inactive: 1.24%
6,O=C(Nc1ccc(F)c(Cl)c1)C1CCCN(c2cnccn2)C1 (configuration not stated),inactive: -5.7%
7,COc1ccc(S(=O)(=O)NCC(c2ccco2)N2CCN(c3ccc(F)cc3)CC2)cc1C (configuration not stated),inactive: -21.6%
8,CC1CCN(S(=O)(=O)c2ccc3c(ccn3CCC(=O)NCc3ccc(N(C)C)cc3)c2)CC1,inactive: -15.5%
9,COc1cccc2cc(C(=O)NCCc3c(C)[nH]c4ccc(F)cc34)c(=O)oc12,inactive: 10.2%
10,CCc1ccccc1NC(=O)N1CCN(C(=O)c2nsc3ccccc23)CC1,inactive: -0.0583%
11,CC(=O)N1CCCC1c1nc2ccccc2n1Cc1ccccc1C (configuration not stated),inactive: 0.15%
12,Cc1ccc(CN2C(=O)C3(c4ccccc42)N(c2cccc(F)c2)C(=O)CS3(=O)=O)cc1 (configuration not stated),inactive: -2.18%
13,CCCCN(CC)CCNC(=O)c1cn(C)c(=O)c2c1c1ccccc1n2C,inactive: 23.2%
14,Cc1ccccc1CN1CCC(CNc2ncnc3onc(-c4ccc(F)cc4)c23)CC1,inactive: -22.8%
15,COc1cc(NC(=O)NC(C)c2c(-n3cccc3)sc3c2CCCC3)cc(OC)c1OC (configuration not stated),inactive: -7.85%
16,Oc1c(C(c2ccccc2F)N2CCN(Cc3ccccc3)CC2)sc2nc(-c3ccco3)nn12 (configuration not stated),inactive: 1.83%
17,Cc1c(C(=O)N2CCC(c3nc4ccccc4s3)CC2)oc2ccc(Cl)cc12,inactive: -0.788%
18,COc1ccccc1N1CCN(S(=O)(=O)c2c(C)sc3ncn(CC(=O)N(C)c4ccc(Cl)cc4)c(=O)c23)CC1,inactive: 0.582%
19,CCNC(=O)c1c(NC(=O)Cc2coc3cc(C)cc(C)c23)sc2c1CCCC2,inactive: -0.369%
20,COCCn1c(=NC(=O)c2ccc3c(c2)OCCO3)sc2cc(C(=O)OC)ccc21,inactive: -11.9%
